According to paper PMC4336329 (PLoS ONE, 2015):
Screen size: about 310,000 compounds; about 2,200 (0.71%) showed an effect of 50% or more. The effect is printed as a negative number. Some of the results follow.

Molecular target: human ether-à-go-go-related gene (hERG) potassium channel (human, UniProt Q12809)
Assay: primary screen, population patch clamp on CHO cells stably expressing hERG

Sequence of human ether-à-go-go-related gene (hERG) potassium channel (Q12809 whole entry, looked up): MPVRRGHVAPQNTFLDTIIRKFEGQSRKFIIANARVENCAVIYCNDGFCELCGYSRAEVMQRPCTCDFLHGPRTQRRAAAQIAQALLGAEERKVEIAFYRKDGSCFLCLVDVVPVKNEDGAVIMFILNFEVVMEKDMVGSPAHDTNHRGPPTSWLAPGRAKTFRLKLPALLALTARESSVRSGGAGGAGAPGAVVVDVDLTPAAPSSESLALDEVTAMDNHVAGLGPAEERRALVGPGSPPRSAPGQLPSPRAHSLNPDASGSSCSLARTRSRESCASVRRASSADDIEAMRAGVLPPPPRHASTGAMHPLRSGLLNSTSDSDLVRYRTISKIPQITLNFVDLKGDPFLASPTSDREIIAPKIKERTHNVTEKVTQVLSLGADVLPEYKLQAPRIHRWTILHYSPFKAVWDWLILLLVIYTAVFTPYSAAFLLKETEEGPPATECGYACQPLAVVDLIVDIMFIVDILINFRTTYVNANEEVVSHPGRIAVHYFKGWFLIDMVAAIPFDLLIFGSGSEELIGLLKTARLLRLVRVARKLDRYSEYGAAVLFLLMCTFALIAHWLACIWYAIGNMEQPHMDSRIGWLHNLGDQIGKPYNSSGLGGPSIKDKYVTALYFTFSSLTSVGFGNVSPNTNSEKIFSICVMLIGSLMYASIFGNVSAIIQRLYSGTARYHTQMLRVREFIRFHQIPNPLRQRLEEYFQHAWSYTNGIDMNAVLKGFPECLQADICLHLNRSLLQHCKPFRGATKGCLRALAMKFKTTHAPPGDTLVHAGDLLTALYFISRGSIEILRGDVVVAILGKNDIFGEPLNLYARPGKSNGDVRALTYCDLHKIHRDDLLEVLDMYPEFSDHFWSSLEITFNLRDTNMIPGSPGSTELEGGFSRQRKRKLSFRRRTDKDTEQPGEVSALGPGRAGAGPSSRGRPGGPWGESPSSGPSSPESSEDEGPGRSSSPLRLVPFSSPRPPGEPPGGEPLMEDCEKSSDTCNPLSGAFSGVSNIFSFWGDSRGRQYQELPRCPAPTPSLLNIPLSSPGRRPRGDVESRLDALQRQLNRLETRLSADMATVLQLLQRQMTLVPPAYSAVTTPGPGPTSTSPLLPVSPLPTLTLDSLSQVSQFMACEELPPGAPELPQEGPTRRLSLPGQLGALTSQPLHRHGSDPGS

Structure (SMILES) | hERG current change (%, negative = inhibition) at 1uM [%]
CCC(C(=O)NC1CCCC1)N(C(=O)c1snc(C(N)=O)c1N)c1ccc(OC)c(OC)c1 (stereo not drawn) | 9.24
COC(=O)/C=C1\NC(=O)C(C)S1 (stereo not drawn) | 9.78
CC(CCc1ccccc1)NCC#N.Cl (stereo not drawn) | 13.2
CN(Cc1ccccc1)C(=O)CCS(=O)(=O)c1ccc2c(c1)n(C)c(=O)c(=O)n2C | -0.0562
COc1ccc(COC(=O)C2=C(C)NC(=O)NC2c2ccc(OC)c(OC)c2)cc1 (stereo not drawn) | 12.4
COc1ccccc1CNS(=O)(=O)c1ccc2c(c1)CC(C)N2C(=O)C1CC1 (stereo not drawn) | 11.4
CC1NC(C)(C)Cc2c1ccc1ccccc21.Cl (stereo not drawn) | 11.7
COc1ccc(OC)c(NC(=O)COC(=O)c2ccc(OC)c(S(=O)(=O)N3CCCC3)c2)c1 | 9.36
CC1(C)CC(/C=C/c2ccccc2)=Nc2ccccc2N1 | 1.65
COC(=O)C1=C(c2cccc(OCc3ccccc3)c2)C[C@@H]2CC[C@H]1N2C(=O)NCc1ccc([N+](=O)[O-])cc1 | 14.2
O=C1NC(c2ccncc2)Nc2ccccc21 (stereo not drawn) | 18.7
COc1ccc(C2(CNC(=O)CCC(=O)O)CCCC2)cc1 | 5.81
Cc1cc(OC(C)C(=O)NCCCn2ccnc2)c2c(C)c(C)c(=O)oc2c1 (stereo not drawn) | -51.6
O=C(COc1ccccc1)Nc1ccc(S(=O)(=O)Nc2ncccn2)cc1 | 20.6
CC(=O)OC1CC[C@@]2(C)C(CCC3C2CC(=O)[C@@]2(C)C3CC3CC(C)=CC(=O)C32)C1 (stereo partly drawn) | 9.73
CN(C)C(=O)N1CCCC(C(=O)NCc2ccccc2)C1 (stereo not drawn) | 15.5
CC(C)CCN=Cc1c(O)n(-c2ccccc2)c(=O)c2ccccc12 | -5.64
O=C(Nc1ccc(Cl)cc1)Nc1nc(-c2ccccc2)cs1 | 10.3
O=C1CN(C(=O)c2ccco2)C(c2ccc(F)cc2)c2cc(Cl)ccc2N1 (stereo not drawn) | -3.72
O=C(Cn1ccsc1=NC(=O)c1ccco1)c1ccccc1 | -0.525
CC1CCN(C(CNS(=O)(=O)c2ccccc2)c2ccccc2)CC1 (stereo not drawn) | 3.61
CCN1CCN(C(=O)/C=C/c2ccc(C)cc2)CC1 | 4.54

Structure (SMILES) | hERG current change (%, negative = inhibition) at 1uM [%]
Cc1ccc(NS(=O)(=O)c2ccc(-c3ccc(=O)[nH]n3)o2)cc1 | -16.2
CCSc1nnc(NC(=O)Nc2cccc(C)c2)s1 | 12.2
CC(C)N(C(=O)CSc1nnc(NC(=O)C2CCC2)s1)C(C)C | 0.774
Cc1nn(C)c2nc(-c3cccs3)cc(C(F)(F)F)c12 | 7.38
CCC(c1nnc(SCC(=O)NCCc2ccc(Cl)cc2Cl)o1)N(C)C (stereo not drawn) | 4.09
C/C(=N/OC(=O)C1CC12CCC2)c1ccc(Br)cc1 (stereo not drawn) | 8.04
O=S(=O)(Nc1ccc2cn[nH]c2c1)c1ccc(Cl)cc1 | 26.7
C/C(=N\NC(=O)c1ccc(Cn2cc(Br)cn2)o1)c1cccc(NC(=O)C(C)(C)C)c1 | -15.4
CCCC[N+]12CCC(CC1)C(C(O)(c1ccccc1)c1ccccc1)C2.[Br-] (stereo not drawn) | 8.29
CCOC(=O)c1ccccc1NC(=O)CN1C(=O)c2ccccc2S1(=O)=O | 0.76
COc1ccc(C(=O)N/N=C(\C)Cn2nc([N+](=O)[O-])cc2C)cc1 | -6.71
COc1cc(CNCCc2ccc(S(N)(=O)=O)cc2)ccc1OCc1ccc(Cl)cc1.Cl | -1.77
COC(=O)c1c(NC(C)=O)sc2c1CCCCC2 | 12.7
C=CCNc1nc(C2(C)CC3(CC(C)(C)OC3=O)C(=O)O2)cs1 (stereo not drawn) | 6.75
O=C(NC(=S)N1CCCC1)c1ccccc1 | 17.5
COC(=O)c1c(-c2ccccc2)noc1C | 10.9
Nc1nc(CN2CCN(Cc3ccccc3)CC2)nc(N2CCCc3ccccc32)n1 | -28.2
O=C(COC(=O)c1ccccc1[N+](=O)[O-])NCCCc1ccccc1 | 5.5
CCCOc1ccccc1C1CC(=O)NC2=C1C(=O)CCC2 (stereo not drawn) | 11.7
COc1ccc(-c2nnc(-c3cc4c(ccc5ccccc54)oc3=O)o2)cc1 | 3.15
Cl.c1ccc(Nc2nc(N3CCOCC3)c3ccccc3n2)cc1 | 3.46
CCN1CCN(C(=O)c2cc(S(=O)(=O)N3CCCCC3)ccc2Cl)CC1 | 5.86

Structure (SMILES) | hERG current change (%, negative = inhibition) at 1uM [%]
O=C(CNS(=O)(=O)c1ccc(Br)cc1)NCc1cccnc1 | 10.1
O=C(NCCN1CCOCC1)c1cccc(S(=O)(=O)NCc2ccccc2)c1 | -3.78
O=C(Nc1nc2ccccc2n1CCN1CCCCC1)C1CCCCC1 | -29.6
COc1cc2c(cc1OC)C(C(=O)Nc1ccc3c(c1)OCCO3)C1c3ccccc3CCN1C2=O (stereo not drawn) | 0.454
COc1ccccc1OCC(O)Cn1c(=N)n(CCN2CCCCC2)c2ccccc21.Cl (stereo not drawn) | -27.9
OC(Cn1c2ccccc2c2ccccc21)C[n+]1cccc2ccccc21.[O-][Cl+3]([O-])([O-])[O-] (stereo not drawn) | 1.17
CSCCC(C(=O)OCC(=O)c1ccc(C)c(C)c1)N1C(=O)c2cc(Cl)c(Cl)cc2C1=O (stereo not drawn) | 3.6
COc1ccc(C(=O)Nc2cccc(C)c2)cc1S(=O)(=O)N1CCOCC1 | 9.11
COc1cccc(C2CC(C(F)(F)F)n3nc(C(=O)NCc4cccnc4)cc3N2)c1 (stereo not drawn) | 11.8
COc1ccc(OC)c(NC(=O)c2cnn(-c3ccccc3)c2C)c1 | 7.05
Cn1nc(C(=O)Nc2ccc3c(c2)OCO3)c2ccccc2c1=O | 6.82
Cc1ccc(C2=Nc3ccccc3N=C(c3ccco3)C2)c(O)c1 | 9.98
Nc1cccnc1S(=O)(=O)c1ccccc1 | 8.89
COc1ccc(CCNC(=O)c2c(C)nc3ccccn23)cc1OC | -9.75
COc1ccc(NS(=O)(=O)c2cc3c(cc2C)N(C)CCO3)c(OC)c1 | 15.5
Cc1nn(C)c(C)c1NC(=O)CSc1nc(-c2ccccc2Cl)nc2c1cnn2-c1ccccc1 | 1.59
O=C(CCC(=O)N1C[C@H]2C[C@@H](C1)c1cccc(=O)n1C2)NCc1ccc(F)cc1 | 8.93
CCOC(=O)N1CCN(C(=O)CN(Cc2ccccc2)S(C)(=O)=O)CC1 | 10
Cc1ccc(C2C(N)C(=O)N2c2ccc(C)cc2)cc1 (stereo not drawn) | 4.62
COc1ccccc1NC(=O)Cn1cnc2c(cnn2-c2ccc(C)c(C)c2)c1=O | 9.45
Cc1ccccc1SCCNC(=O)c1ccccc1Br | 4.03
CNc1nc(Cl)c(SC)c(NCc2ccc(F)cc2)n1 | 12.1

Structure (SMILES) | hERG current change (%, negative = inhibition) at 1uM [%]
OC1COC(O)C(O)C1O (stereo not drawn) | 6.14
Cc1cccc(N2CCN(C(=S)Nc3ccc4nc(N5CCOCC5)cc(C)c4c3)CC2C)c1 (stereo not drawn) | 9.28
CCc1nc(Sc2nnnn2-c2ccccc2)c2c3c(sc2n1)CCCC3 | 5.25
Cc1cc(C)nc(N2CCCC(C(=O)NCc3ccccc3)C2)n1 (stereo not drawn) | 10.6
CCc1ccc[n+](-c2[nH]c(=O)sc2/C=N/N=C(\[O-])CCn2c3ccccc3c3ccccc32)c1 | 12.9
C=CCn1c(COc2cccc(C)c2)nnc1SCC(=O)NC(=O)NCc1ccco1 | 14.1
O=C(O)C1CCCCC1C(=O)Nc1ccccc1Cl (stereo not drawn) | 4.86
CC1CCCC(NC(=O)CN2C(=O)c3cccnc3Oc3ccc(Cl)cc32)C1C (stereo not drawn) | 6.45
COc1ccccc1CCNC(=O)C(=O)NCC1OCCN1S(=O)(=O)c1cc(F)ccc1F (stereo not drawn) | 8.74
CCOC(=O)C1=C(C)N(CCCC(=O)O)C(=O)NC1c1ccc([N+](=O)[O-])cc1 (stereo not drawn) | 15.8
Cc1nc(C(=O)NC2CCOCC2)sc1C1(C)CC(c2cccc([N+](=O)[O-])c2)=NO1 (stereo not drawn) | 10.1
NS(=O)(=O)c1ccc(NC(=O)/C=C/c2cccc(Cl)c2)cc1 | 10.6
O=S(=O)(c1ccccc1)N1CCC(N2CCCCCC2)CC1 | 13.6
Cc1cc(Nc2nnnn2-c2ccccc2)n(-c2ccccc2)n1 | -13.8
COc1ccccc1NC(=O)/C(C#N)=C/C=C/c1ccco1 | -12
CCOc1ccc(OCCCCNCCN)cc1.O=C(O)C(=O)O | 14.5
CCCCn1c(SCn2nnc3ccccc3c2=O)nc2cc(S(N)(=O)=O)ccc21 | 9.75
Cc1cccc(N2CCN(C(=O)C3COc4ccccc4O3)CC2)c1C (stereo not drawn) | 0.785
Fc1ccc(CNCc2ccccc2C(F)(F)F)cc1 | 10.6
COc1cccc(C2C(C(=O)c3cccs3)=C(O)C(=O)N2c2cc(C)on2)c1 (stereo not drawn) | 13.2
CC(C)C[C@H](NC(=O)c1nc[nH]c1C(=O)N1CCN(C(=O)OC(C)(C)C)CC1)C(=O)OC(C)(C)C | 1.12
